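These data come from cells grown in 96-well plates and exposed to compound for 48 hours at five concentrations. Abbreviation: GI50, concentration required for 50% inhibition of growth. The concentration for full growth arrest is given as TGI.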 Square brackets hold non-standard residues; d marks the D form. Peptide text beside a SMILES is read from it. * marks the point of attachment. ξ: configuration not given here. ξF = NC(Cc1ccccc1)C(=O)O; Cbz = O=C(OCc1ccccc1)*; Aib = CC(C)(N)C(=O)O; NHNH2 = NN*
The molecules below were run on NCI-H322M lung (assay: growth of human tumour cells (NCI), 48 h).

First: CCOC(=O)C(/C(=N/S(=O)(=O)c1cc(C)c(Cl)cc1[S-])[n+]1ccc(N(C)C)cc1)=C(/O)c1ccc([N+](=O)[O-])cc1
Second: Cc1cc(C)n(CC(Cn2nc(C)cc2C)=C(/C(Cl)=C(/Cl)Nc2ccc([N+](=O)[O-])cc2)[N+](=O)[O-])n1
The TGI of the first is 2.1-fold higher: 36.2 µM for the first, 17.1 µM for the second.

COC(=O)C(Cc1cc(OC)c(OC)c(OC)c1)C(=O)OC and COc1cc2oc(=O)ccc2cc1C(=O)CC(C)C cannot be ordered by TGI: > 320 µM for the first, > 100 µM for the second.

O=C(NCCCCCCCCCCCCNC(=O)c1cccc2ccccc12)c1cccc2ccccc12 and OC(c1ccccc1)(c1ccccc1)c1nccc2ccccc12 cannot be ordered by TGI: > 100 µM for the first, > 100 µM for the second.

First: CC(C)=CCC[C@]1(C)C=Cc2c(O)c3c(c(CC=C(C)C)c2O1)O[C@]12C(=C[C@@H]4CC1C(C)(C)O[C@@]2(C/C=C(/C)C(=O)O)C4=O)C3=O
Second: CC(=O)OCC1OC(n2cc(F)c(=O)[nH]c2=O)C(NC(=O)N(CCCl)N=O)C(OC(C)=O)C1OC(C)=O (stereo not drawn)
The TGI of the first is lower: 5.98 µM for the first, > 100 µM for the second.

First: CC(C)C1C(=O)N(c2c(F)c(F)c(F)c(F)c2F)C(=S)N1CCS(=O)c1ccccc1 (stereo not drawn)
Second: C[C@@H](c1ccccc1)n1c(N)c(-c2ccccn2)c2ccc([N+](=O)[O-])cc2c1=O
The TGI of the first is lower: 31.1 µM for the first, > 100 µM for the second.

CN(C)c1ccc(C=Nc2ccc(-c3nc4ccccc4[nH]3)cc2)cc1 and COC[C@@H](N=C1NC(=O)/C(=C/c2ccc3ncccc3c2)S1)c1ccccc1 cannot be ordered by TGI: > 100 µM for the first, > 25 µM for the second.

CC(Nc1ncc2c(n1)-c1ccccc1OC2)C(=O)O (stereo not drawn) and CC(NC(=O)/C(=C/c1ccccc1)NC(=O)c1ccccc1)C(=O)O (stereo not drawn) cannot be ordered by TGI: > 100 µM for the first, > 100 µM for the second.

First: COCCNCc1ccc(-c2cc3nccc(Oc4ccc(NC(=S)NC(=O)Cc5ccc(F)cc5)cc4F)c3s2)nc1
Second: CCOc1cc(C2SCC(=O)N2c2ccc(Oc3ccc(Cl)cc3)c(Cl)c2)ccc1O (stereo not drawn)
The TGI of the first is 3.9-fold lower: 8.26 µM for the first, 32.3 µM for the second.

First: CC(C)(CN1CCCCC1)C(=O)/C=C/c1ccc(/C=C/C(=O)C(C)(C)CN2CCCCC2)cc1
Second: CC(C)(C)OC(=O)n1c2ccccc2c2c(=O)nc(N3CCCCC3)sc21
The TGI of the first is lower: 2.33 µM for the first, > 100 µM for the second.

First: CC(C)OP(=O)(OC(C)C)/C(Cl)=N/Nc1ccc([N+](=O)[O-])cc1
Second: CS(=O)(=O)Nc1cncc(-c2ccc3ncnc(Nc4ccc(F)c(Cl)c4)c3c2)c1
The TGI of the first is higher: > 100 µM for the first, 7.38 µM for the second.

O=C1NC(=O)C(F)(n2cc(F)c(=O)[nH]c2=O)C(O)N1 (stereo not drawn) and NNC(=S)N/N=C(\C(=O)Nc1cccc(O)c1)C1C(=O)NC(=S)NC1=O cannot be ordered by TGI: > 10 µM for the first, > 100 µM for the second.

Going from S=c1[nH]nc(CNc2ccc(-c3n[nH]c(=S)n3-c3ccc(Cl)cc3)cc2)n1-c1ccc(Cl)cc1 to Clc1ccccc1/C=c1\nc(-c2ccccc2)n2c1nc1ccccc12, the TGI rises from 63 µM to > 100 µM.

CC(C)(NC(=O)OCc1ccccc1)C(=O)NC(Cc1ccccc1)C(=O)NN (stereo not drawn) (Cbz-[Aib]-[ξF]-NHNH2) and CC(O)(Cc1ccccc1C#N)Cc1ccccc1C#N cannot be ordered by TGI: > 100 µM for the first, > 100 µM for the second.

COc1ccc(N=N/C(=N/NC(=O)c2ccc(C)cc2)c2ccc(N(CCC#N)CCC#N)cc2OC)cc1 and COc1ccc(C(=O)C2=NON3OC23C(=O)c2ccc(OC)cc2)cc1 (stereo not drawn) cannot be ordered by TGI: > 100 µM for the first, > 100 µM for the second.

c1ccc2sc(SCCSc3nc4ccccc4s3)nc2c1 and CCOC(=O)c1c[nH]c2c(Sc3ccccc3)nccc2c1=O cannot be ordered by TGI: > 100 µM for the first, > 100 µM for the second.

Compared with C[C@@H](NC1CCCC[C@H]1O)c1ccccc1 (stereo partly drawn), Cc1nc2ccc(Nc3nc(Cl)nc(N4CCOCC4)n3)cc2n1Cc1ccccc1 is lower in TGI: > 100 µM for the first, 7.34 µM for the second.

O=C(O)CCCC(=O)Nn1c(Cc2ccc(Cl)cc2)n[nH]c1=O and CCc1n[nH]c(=O)n1/N=C/c1ccccc1O cannot be ordered by TGI: > 100 µM for the first, > 100 µM for the second.

Compared with Cc1cc2c(c(C=Nc3ccccc3O)c1)OC1(C=C2)Oc2ccccc2C(=O)N1C (stereo not drawn), COc1ccc2c(c1OC)C[C@@H]1c3c(cc4c(c3-2)OCO4)CCN1C is higher in TGI: 35.7 µM for the first, > 100 µM for the second.

Going from CCN(CC)C(=O)Cc1c(C(=O)N(CC)CC)c(=O)nc2sccn12 to COC(=O)/C=C1\C(=O)N(C(C)=O)c2ccc(Br)cc21, the TGI falls from > 100 µM to 36.3 µM.

Molecule Cc1cc(NCCCCCCCCNc2cc(C)nc3cc(N)ccc23)c2ccc(N)cc2n1 has a TGI of 67.6 µM.

Going from COCCNCc1ccc(-c2cc3nccc(Oc4ccc(NC(=S)NC(=O)Cc5ccc(F)cc5)cc4F)c3s2)nc1 to COC[C@@H](N=C1NC(=O)/C(=C/c2ccc3ncccc3c2)S1)c1ccccc1, the GI50 rises from 2670 nM to 8550 nM (3.2-fold).

Compared with CS(=O)(=O)Nc1cncc(-c2ccc3ncnc(Nc4ccc(F)c(Cl)c4)c3c2)c1, Cc1nc2ccc(Nc3nc(Cl)nc(N4CCOCC4)n3)cc2n1Cc1ccccc1 is 6.1-fold higher in GI50: 427 nM for the first, 2610 nM for the second.
